Some of the results follow. Most values come without repeats; read them as rough.
System: LOXIMVI
Assay: cell count relative to DMSO control; melanoma cells; higher = more viable cells
Conditions: library dose: standard library concentration; 72 h; first compound 2 µM
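Also: cells treated in 1,536-well plates, then fixed and DAPI-stained, with nuclei counted from automated high-throughput microscope images.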

| Structure (SMILES) | cell count [%] |
| --- | --- |
| CCCCCCCCCCCCCCCCCCOP(=O)([O-])OC1CC[N+](C)(C)CC1 [Perifosine] + C[C@]1(c2nc3c(C(N)=O)cccc3[nH]2)CCCN1 [Veliparib] (partner dose 7 µM) | 66.4 |
| Cn1sc(=O)n(Cc2ccccc2)c1=O + Cc1cc(Nc2cc(N3CCN(C)CC3)nc(/C=C/c3ccccc3)n2)n[nH]1 [ENMD2076] (partner dose 0.2 µM) | 91 |
| CCCCCCCCCCCCCCCCCCOP(=O)([O-])OC1CC[N+](C)(C)CC1 [Perifosine] + COc1ccc(C2=N[C@@H](c3ccc(Cl)cc3)[C@@H](c3ccc(Cl)cc3)N2C(=O)N2CCNC(=O)C2)c(OC(C)C)c1 [Nutlin-3] (partner dose 0.5 µM) | 59.5 |
| Cn1sc(=O)n(Cc2ccccc2)c1=O + Cn1c(=O)n(-c2ccc(C(C)(C)C#N)cc2)c2c3cc(-c4cnc5ccccc5c4)ccc3ncc21 [NVP-BEZ235] (partner dose 0.02 µM) | 51.3 |
| C[C@@H](N)c1ccc(C(=O)Nc2ccnc3[nH]ccc23)cc1 + Nc1nc(F)nc2c1ncn2[C@@H]1O[C@H](CO)[C@@H](O)[C@@H]1O [fludarabine] (partner dose 1 µM) | 52.9 |
| C[C@@H](N)c1ccc(C(=O)Nc2ccnc3[nH]ccc23)cc1 + O=C(Nc1cccc(Cl)c1)Nc1ncc(CCNc2ncnc3ccsc23)s1 [SNS314] (partner dose 0.004 µM) | 75.7 |
| Cn1sc(=O)n(Cc2ccccc2)c1=O + O=C(O)c1ccc2c(c1)nc(Nc1cccc(Cl)c1)c1ccncc12 [CX4945] (partner dose 2 µM) | 43.9 |
| Cn1sc(=O)n(Cc2ccccc2)c1=O + COc1ccc(Cl)c(Nc2nc3ccccc3nc2NS(=O)(=O)c2cccc(NC(=O)C(C)(C)N)c2)c1 [XL147] (partner dose 4 µM) | 85.7 |
| CCCCCCCCCCCCCCCCCCOP(=O)([O-])OC1CC[N+](C)(C)CC1 [Perifosine] + Cn1nnc2c(C(N)=O)ncn2c1=O [temozolomide] (partner dose 10 µM) | 88.9 |
| CCCCCCCCCCCCCCCCCCOP(=O)([O-])OC1CC[N+](C)(C)CC1 [Perifosine] + Clc1ccc(Nc2nnc(Cc3ccncc3)c3ccccc23)cc1 [vatalanib] (partner dose 10 µM) | 90.3 |
| C[C@@H](N)c1ccc(C(=O)Nc2ccnc3[nH]ccc23)cc1 + COc1cc(Nc2ncc(F)c(Nc3ccc4c(n3)NC(=O)C(C)(C)O4)n2)cc(OC)c1OC [Tamatinib] (partner dose 2 µM) | 23.7 |
| C[C@@H](N)c1ccc(C(=O)Nc2ccnc3[nH]ccc23)cc1 + COc1cc2c(Oc3ccc4[nH]c(C)cc4c3F)ncnc2cc1OCCCN1CCCC1 [cediranib] (partner dose 2 µM) | 66.8 |
| C[C@@H](N)c1ccc(C(=O)Nc2ccnc3[nH]ccc23)cc1 + CCCCCCCCc1ccc(CCC(N)(CO)CO)cc1 [fingolimod] (partner dose 10 µM) | 22.3 |
| Cn1sc(=O)n(Cc2ccccc2)c1=O + C[C@]1(O)C[C@@H](c2nc(-c3ccc4ccc(-c5ccccc5)nc4c3)c3c(N)nccn32)C1 [OSI906] (partner dose 2 µM) | 87.2 |
| Cn1sc(=O)n(Cc2ccccc2)c1=O + NC(=O)c1ccc(N(C(N)=O)c2c(F)cccc2F)nc1-c1ccc(F)cc1F [VX702] (partner dose 2 µM) | 94 |
| C[C@@H](N)c1ccc(C(=O)Nc2ccnc3[nH]ccc23)cc1 + Cn1cnc2c(F)c(Nc3ccc(Br)cc3Cl)c(C(=O)NOCCO)cc21 [selumetinib] (partner dose 0.075 µM) | 86.1 |

| Structure (SMILES) | cell count [%] |
| --- | --- |
| CCCCCCCCCCCCCCCCCCOP(=O)([O-])OC1CC[N+](C)(C)CC1 [Perifosine] + CC(C)C[C@H](NC(=O)[C@H](Cc1ccccc1)NC(=O)c1cnccn1)B(O)O [Bortezomib] (partner dose 0.005 µM) | 44.9 |
| C[C@@H](N)c1ccc(C(=O)Nc2ccnc3[nH]ccc23)cc1 + CNC(=O)c1cc(Oc2ccc(NC(=O)Nc3ccc(Cl)c(C(F)(F)F)c3)cc2)ccn1 [sorafenib] (partner dose 2 µM) | 111 |
| CCCCCCCCCCCCCCCCCCOP(=O)([O-])OC1CC[N+](C)(C)CC1 [Perifosine] + C[C@]1(O)C[C@@H](c2nc(-c3ccc4ccc(-c5ccccc5)nc4c3)c3c(N)nccn32)C1 [OSI906] (partner dose 2 µM) | 63.3 |
| CCCCCCCCCCCCCCCCCCOP(=O)([O-])OC1CC[N+](C)(C)CC1 [Perifosine] + NC1(c2ccc(-c3nc4ccn5c(=O)[nH]nc5c4cc3-c3ccccc3)cc2)CCC1 [MK2206] (partner dose 2 µM) | 63.2 |
| CCCCCCCCCCCCCCCCCCOP(=O)([O-])OC1CC[N+](C)(C)CC1 [Perifosine] + O=c1[nH]nc(Sc2ncc([N+](=O)[O-])s2)n1-c1ccc2c(c1)OCCO2 [BI78D3] (partner dose 1 µM) | 110 |
| C[C@@H](N)c1ccc(C(=O)Nc2ccnc3[nH]ccc23)cc1 + NC1(c2ccc(-c3nc4ccn5c(=O)[nH]nc5c4cc3-c3ccccc3)cc2)CCC1 [MK2206] (partner dose 2 µM) | 114 |
| CCCCCCCCCCCCCCCCCCOP(=O)([O-])OC1CC[N+](C)(C)CC1 [Perifosine] + Cc1cn(-c2cc(NC(=O)c3ccc(C)c(Nc4nccc(-c5cccnc5)n4)c3)cc(C(F)(F)F)c2)cn1 [nilotinib] (partner dose 1 µM) | 134 |
| Cn1sc(=O)n(Cc2ccccc2)c1=O + CN(c1ncccc1CNc1nc(Nc2ccc3c(c2)CC(=O)N3)ncc1C(F)(F)F)S(C)(=O)=O [PF562271] (partner dose 0.4 µM) | 112 |
| C[C@@H](N)c1ccc(C(=O)Nc2ccnc3[nH]ccc23)cc1 + C=C(c1ccc(C(=O)O)cc1)c1cc2c(cc1C)C(C)(C)CCC2(C)C [Bexarotene] (partner dose 10 µM) | 47.6 |
| CCCCCCCCCCCCCCCCCCOP(=O)([O-])OC1CC[N+](C)(C)CC1 [Perifosine] + Cc1cc(Nc2cc(N3CCN(C)CC3)nc(/C=C/c3ccccc3)n2)n[nH]1 [ENMD2076] (partner dose 0.2 µM) | 82.4 |
| C[C@@H](N)c1ccc(C(=O)Nc2ccnc3[nH]ccc23)cc1 + CN(NC(=O)CC(=O)NN(C)C(=S)c1ccccc1)C(=S)c1ccccc1 [STA4783] (partner dose 0.03 µM) | 66.9 |
| Cn1sc(=O)n(Cc2ccccc2)c1=O + COc1cc(Nc2ncc(F)c(Nc3ccc4c(n3)NC(=O)C(C)(C)O4)n2)cc(OC)c1OC [Tamatinib] (partner dose 2 µM) | 42.6 |
| CCCCCCCCCCCCCCCCCCOP(=O)([O-])OC1CC[N+](C)(C)CC1 [Perifosine] + OCc1c[nH]c2ccccc12 [Indole-3-carbinol] (partner dose 4 µM) | 174 |
| C[C@@H](N)c1ccc(C(=O)Nc2ccnc3[nH]ccc23)cc1 + CS(=O)(=O)CCNCc1ccc(-c2ccc3ncnc(Nc4ccc(OCc5cccc(F)c5)c(Cl)c4)c3c2)o1 [lapatinib] (partner dose 4 µM) | 89.6 |
| Cn1sc(=O)n(Cc2ccccc2)c1=O + O=C(O)c1ccc(-c2c[nH]c3ncc(-c4ccccc4)cc23)cc1C1CCCC1 [GSK650394] (partner dose 0.8 µM) | 79.8 |
| Cn1sc(=O)n(Cc2ccccc2)c1=O + Cn1nnc2c(C(N)=O)ncn2c1=O [temozolomide] (partner dose 10 µM) | 88.1 |

— the supplement of paper PMC4604168 (melanoma cell lines)
